PubChem BioAssay AID2147 (National Center for Advancing Translational Sciences (NCATS), 2009)
Several values for one entry are separate records, joined by “and”; a condition that tells them apart may be missing. Identical values can stand only once. The whole screen tested about 230,000 compounds, of which about 3,600 (1.6%) were called active. Inconclusive results, whose numbers are uncertain, are shown with a selection of clear calls. Calls come from the whole dose curve; as a rule, active = well fitted inhibition curve with a large enough effect (not every such curve was filed as active); inconclusive = small, poorly fitted or top-dose-only effect, or another doubt; inactive = no such curve, though single readings can be large or run the other way. Where the call is inconclusive, the potency comes from a doubtful curve fit.

Target: Lysine-specific demethylase 4E (Homo sapiens) (UniProt B2RXH2)
Assay: qHTS Assay for Inhibitors of Human Jumonji Domain Containing 2E (JMJD2E)
Conditions: JMJD2E catalytic domain, FDH-coupled NADH fluorescence (FDH is formaldehyde dehydrogenase); series mostly up to 57.1 µM
Note: nearly all actives have a fitted effect of over 50% in size.
Potency is the fitted concentration of half-maximal effect; tags give direction and shape of the fitted curve.

UniProt B2RXH2, sequence (B2RXH2 whole entry, looked up, the tested form may be a part): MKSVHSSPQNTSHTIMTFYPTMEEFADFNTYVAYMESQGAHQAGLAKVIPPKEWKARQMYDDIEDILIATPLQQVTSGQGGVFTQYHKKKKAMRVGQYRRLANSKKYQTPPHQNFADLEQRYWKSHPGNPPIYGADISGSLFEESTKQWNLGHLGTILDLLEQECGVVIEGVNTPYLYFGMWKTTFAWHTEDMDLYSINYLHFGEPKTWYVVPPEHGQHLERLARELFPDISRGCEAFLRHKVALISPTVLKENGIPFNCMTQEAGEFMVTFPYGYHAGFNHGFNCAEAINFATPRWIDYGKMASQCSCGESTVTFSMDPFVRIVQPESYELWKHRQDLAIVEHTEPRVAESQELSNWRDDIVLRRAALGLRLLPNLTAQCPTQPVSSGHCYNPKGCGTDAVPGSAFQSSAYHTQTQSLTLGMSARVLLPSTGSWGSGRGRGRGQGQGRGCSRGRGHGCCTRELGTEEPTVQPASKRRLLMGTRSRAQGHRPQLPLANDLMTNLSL

Structure (SMILES)	Potency
Cc1ccnc(NC2CCCCC2)c1	inconclusive: 3.55 µM [inhibitor, partial curve]
COc1cc(C2C(C#N)=C(N)Oc3cc(O)ccc32)cc2c1OCO2 (centres undefined)	inactive
N#Cc1c(N)nc(SCc2ccccc2)c(C#N)c1-c1ccco1	inconclusive: 28.2 µM [inhibitor, single point]
Cc1c(NC(=O)COC(=O)c2ccc(S(=O)(=O)N3CCOCC3)cc2)c(=O)n(-c2ccccc2)n1C	inconclusive: 0.251 µM [inhibitor, full curve, poor fit]
Cn1c(N)c(C(=O)COC(=O)c2cc(-c3ccco3)nc3ccccc23)c(=O)n(Cc2ccccc2)c1=O	inconclusive: 20 µM [inhibitor, partial curve] and inconclusive: 17.8 µM [inhibitor, partial curve]
Nc1nc2nc(-c3ccc(F)cc3)cc(C(F)(F)F)n2n1	inconclusive: 8.91 µM [inhibitor, partial curve]
CCC(=O)N/C(N)=N/c1nc(C)c2cc(OC)ccc2n1	inconclusive: 22.4 µM [inhibitor, partial curve]
Cc1nc(N)sc1-c1csc(Nc2ccccn2)n1	inconclusive: 39.8 µM [inhibitor, single point]
COc1ccc(C(CNC(=O)c2cc(SC)ccc2Cl)N(C)C)cc1 (centres undefined)	inactive
CC(=O)N1c2ccccc2C(=O)C1N1CCCCC1 (centres undefined)	inconclusive: 39.8 µM [inhibitor, single point]
CCCc1c(C)[nH]c2ccc(C(=O)O)cc2c1=S	inconclusive: 25.1 µM [inhibitor, partial curve]
Cn1cnnc1SC1CCCCC1NS(=O)(=O)c1ccc(Cl)cc1 (centres undefined)	inactive
CC1CCc2cc(F)cc3c(O)c(C(=O)NCC4CCCO4)c(=O)n1c23 (centres undefined)	inconclusive: 28.2 µM [inhibitor, partial curve]
O=C(N/N=C/C=C/c1ccccc1)c1ccncc1	inactive
CCOC(=O)c1c(/N=C/c2cccc([N+](=O)[O-])c2O)sc2c1CCC2	inactive
Cc1ccccc1NC(=O)CN1C(=O)S/C(=C\c2cccn2-c2cccc(C(=O)O)c2)C1=O	inactive
COC(=O)C1=C(C)N=C2SCCC(=O)N2C1c1cc(Br)ccc1OC (centres undefined)	inconclusive: 39.8 µM [inhibitor, single point]
COc1cc(OC)cc(C(=O)N[C@H](C(=O)Nc2nc(-c3cc(OC)ccc3OC)cs2)C(C)C)c1	inconclusive: 39.8 µM [inhibitor, single point]
CCOc1ccc(-c2cc(C(=O)OC)nc3c2c(=O)n(C)c(=O)n3C)cc1	inconclusive: 25.1 µM [inhibitor, partial curve]
CCC(C)NC(=O)CCC(=O)Nc1ccc2nc(N3CC(C)CC(C)C3)cc(C)c2c1 (centres undefined)	inconclusive: 31.6 µM [inhibitor, partial curve]
CCOC(=O)CC(=O)CSc1ncnc2c1oc1ccccc12	inactive
CCCCc1nc(NCCNC(=O)c2ccco2)c(C#N)c2c1CSC(C)(C)C2	inconclusive: 28.2 µM [inhibitor, partial curve]
COc1ccc(CN(C(=O)CSc2nnc(-c3ccccc3C)o2)c2ccc(F)cc2)cc1	inactive

Structure (SMILES)	Potency
O=C(NCCc1ccccc1)c1c(O)c2cccc3c2n(c1=O)CC3	inconclusive: 25.1 µM [inhibitor, partial curve]
Cc1ccc2nc(NCC(=O)NN)nc(-c3ccccc3)c2c1	inconclusive: 28.2 µM [inhibitor, partial curve]
COc1ccccc1-c1cc(C(F)(F)F)nc(NCc2ccco2)n1	inconclusive: 39.8 µM [inhibitor, single point]
O=C(CSC1=Nc2ccccc2C2=NC(c3ccccc3)C(=O)N12)NCC1CCCO1 (centres undefined)	inconclusive: 31.6 µM [inhibitor, partial curve]
O=C(N/N=C/c1cc(Br)ccc1O)c1ccccc1Cl	inconclusive: 28.2 µM [inhibitor, single point]
COc1ccc(CN2CCN(S(=O)(=O)c3ccc(NC(C)=O)cc3)CC2)cc1OC	inconclusive: 31.6 µM [inhibitor, single point]
CC1(C)C/C(=N\NC(=S)Nc2ccccc2F)c2cc(O)ccc2O1	inconclusive: 35.5 µM [inhibitor, single point]
COc1ccc(S(=O)(=O)Oc2ccc3c(c2)O/C(=C\c2cccnc2)C3=O)cc1	inactive
COn1c(SCc2ccccc2)nc2ccccc2c1=O	inactive
COc1ccc(OC)c(NC(=O)CN(C)CC(=O)Nc2ccccc2Br)c1	inconclusive: 15.8 µM [inhibitor, partial curve]
CCn1ccnc1CNC(=O)CC1C(=O)NCCN1Cc1ccccc1F (centres undefined)	inconclusive: 0.0355 µM [inhibitor, full curve]
Cc1csc(NC(=O)c2ccc(-c3ccc(Cl)cc3Cl)o2)n1	inconclusive: 35.5 µM [inhibitor, partial curve]
N#CC1=C(N)SC(N)=C(C#N)C1c1ccoc1	inconclusive: 39.8 µM [inhibitor, single point]
CC(C)n1nc(C(=O)Nc2cccc(S(=O)(=O)NCc3ccco3)c2)c2ccccc2c1=O	inconclusive: 31.6 µM [inhibitor, single point]
CCN(CC)c1ccc(CNc2ccc(Br)cn2)cc1	inconclusive: 39.8 µM [inhibitor, single point]
Cc1cc(N)c2ccccc2n1	inactive
CCOC(=O)c1cnc(-n2nc(C)cc2C)nc1NCCO	inconclusive: 28.2 µM [inhibitor, partial curve]
O=C(/C=C/c1c(Cl)nc2ccccn12)N1CCCCC1	inactive
COc1cc(OC)cc(C(=O)Nc2ccc(-c3nc4ccccc4o3)cc2)c1	inconclusive: 35.5 µM [inhibitor, single point]
O=S(=O)(Nc1ccccn1)c1ccc(C2CCCCC2)cc1	inconclusive: 35.5 µM [inhibitor, single point]
CCOC(=O)c1c(-c2ccccc2)oc2ccc(OC(C)=O)cc12	inconclusive: 22.4 µM [inhibitor, partial curve]
COc1cccc(-c2nnc(SCCOc3ccc4c(C)cc(=O)oc4c3)o2)c1	inconclusive: 8.91 µM [inhibitor, partial curve]
CC1CC(C)CN(c2oc(Cc3ccccc3)nc2C#N)C1 (centres undefined)	inactive

Structure (SMILES)	Potency
C=CCN1C(=O)S/C(=C\c2ccc(N3CCOCC3)cc2C)C1=O	inactive
CCCCC(=O)NC(c1ccco1)c1c(O)ccc2ccccc12 (centres undefined)	inconclusive: 22.4 µM [inhibitor, partial curve]
COc1ccc(CN2CCCC(C(=O)c3ccc(SC)cc3)C2)cc1Cn1cccn1 (centres undefined)	inactive
O=C(COC(=O)c1cc(=O)[nH]c2ccccc12)Nc1nccs1	inconclusive: 39.8 µM [inhibitor, single point]
CCCCc1ccc(NC(=O)COCC)cc1	inactive
COc1cc(/C=C2/C(=O)N=C(N)N2C)cc(OC)c1OC	inactive
CCOC(=O)c1nn(-c2ccccc2C)c2nc(Nc3ccccc3)cc(=O)n12	inconclusive: 39.8 µM [inhibitor, single point]
COc1ccc2[nH]c3c(=O)n(CCCCC(=O)NCCN4CCCC4)c(=S)[nH]c3c2c1	inconclusive: 25.1 µM [inhibitor, partial curve]
COc1ccccc1OCCNc1cc(N2CCCCC2)ccc1[N+](=O)[O-]	inactive
O=C(O)c1ccccc1-c1ccccc1C(=O)Nc1ccc(-c2nc3cc(Cl)ccc3o2)cc1	inconclusive: 31.6 µM [inhibitor, partial curve]
O=C(N/N=C/c1ccncc1)c1cccc(NC(=O)c2ccccc2Cl)c1	inactive
CCOC(=O)Nc1c2ccccc2nc2ccccc12	inconclusive: 28.2 µM [inhibitor, partial curve]
CCOC(=O)c1c(CN2CCCCC2)oc2ccc(OC)cc12	inconclusive: 28.2 µM [inhibitor, single point] and inconclusive: 25.1 µM [inhibitor, partial curve]
O=C(COc1ccccc1F)N1CCN(S(=O)(=O)/C=C/c2ccccc2)CC1	inactive
Cc1cc(C)c(OCC(=O)Nc2nc(-c3ccccn3)cs2)c(C)c1	inactive
O=C(CSc1cccc2cccnc12)N/N=C/c1cccnc1	inconclusive: 31.6 µM [inhibitor, partial curve]
Cc1ccc(C2N(C)c3ccccc3-c3nc4ccccc4n32)o1 (centres undefined)	inconclusive: 28.2 µM [inhibitor, partial curve]
O=C(/C=C/c1ccc(OCc2ccccc2)cc1)c1cccs1	inconclusive: 31.6 µM [inhibitor, partial curve, poor fit]
Cc1oc(C(=O)O)cc1COc1ccc2c3c(c(=O)oc2c1)CCC3	inconclusive: 15.8 µM [inhibitor, partial curve]
O=c1cc(-c2ccccc2)nc2nc(-c3ccco3)[nH]n12	inconclusive: 10 µM [inhibitor, partial curve]
Cc1ccc(S(=O)(=O)NC(=O)c2ccc(-c3ccc(C)c4ccccc34)o2)cc1	inconclusive: 31.6 µM [inhibitor, partial curve]
O=C(Nc1cccc(-c2nc3ncccc3o2)c1)c1cc2ccccc2o1	inconclusive: 35.5 µM [inhibitor, single point]
Cc1nc(N)c(C#N)c(-c2cccnc2)c1C	inconclusive: 39.8 µM [inhibitor, single point]
